# In publication PMC9911399, “Two distinct binding modes provide the RNA-binding protein RbFox with extraordinary sequence specificity”:
# Where a chain is given by its changes, count along the chain named. The list shows a part of the results.
# T1: RBFOX1 RRM RbFoxmut (Fox-RRM*) (Homo sapiens, UniProt Q9NWB1 109-208, R118D;E147R;N151S;E152T)
# T1 sequence: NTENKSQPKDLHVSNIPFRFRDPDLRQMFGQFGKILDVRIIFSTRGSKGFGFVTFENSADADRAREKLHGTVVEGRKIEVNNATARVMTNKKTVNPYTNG
# B1: AAAUUAU (DNA:RNA)
# RNA: GGGAGACCGGAAUUCAGAUUGUCCAAAUUAUUUAAAUCCCGUCGUAGCCACCA
# DNA 1: CAATCTGAATTCCGGTCTCCC
# DNA 2: TGGTGGCTACGACGGGATT
# B2: UUGGCAA (DNA:RNA)
# RNA: B1 RNA with A25U, A26U, A27G, U28G, U29C, U31A
# DNA 1: CAATCTGAATTCCGGTCTCCC
# DNA 2: TGGTGGCTACGACGGGATT
# B3: GUUCCUG (DNA:RNA)
# RNA: GGGAGACCGGAAUUCAGAUUGUCCGUUCCUGUUAAAUCCCGUCGUAGCCACCA
# DNA 1: CAATCTGAATTCCGGTCTCCC
# DNA 2: TGGTGGCTACGACGGGATT
# B4: ACACAAC (DNA:RNA)
# RNA: B1 RNA with A26C, U28C, U29A, U31C
# DNA 1: CAATCTGAATTCCGGTCTCCC
# DNA 2: TGGTGGCTACGACGGGATT
# B5: AUAAUCA (DNA:RNA)
# RNA: B1 RNA with A26U, U28A, A30C, U31A
# DNA 1: CAATCTGAATTCCGGTCTCCC
# DNA 2: TGGTGGCTACGACGGGATT
# B6: CGGGAGG (DNA:RNA)
# RNA: B3 RNA with G25C, U26G, U27G, C28G, C29A, U30G
# DNA 1: CAATCTGAATTCCGGTCTCCC
# DNA 2: TGGTGGCTACGACGGGATT
# B7: GCGACGG (DNA:RNA)
# RNA: B3 RNA with U26C, U27G, C28A, U30G
# DNA 1: CAATCTGAATTCCGGTCTCCC
# DNA 2: TGGTGGCTACGACGGGATT
# B8: GGACGAG (DNA:RNA)
# RNA: B3 RNA with U26G, U27A, C29G, U30A
# DNA 1: CAATCTGAATTCCGGTCTCCC
# DNA 2: TGGTGGCTACGACGGGATT
# B9: AGCGAGA (DNA:RNA)
# RNA: B1 RNA with A26G, A27C, U28G, U29A, A30G, U31A
# DNA 1: CAATCTGAATTCCGGTCTCCC
# DNA 2: TGGTGGCTACGACGGGATT
# B10: CCUUUCU (DNA:RNA)
# RNA: B1 RNA with A25C, A26C, A27U, A30C
# DNA 1: CAATCTGAATTCCGGTCTCCC
# DNA 2: TGGTGGCTACGACGGGATT
# B11: UACUUUA (DNA:RNA)
# RNA: B1 RNA with A25U, A27C, A30U, U31A
# DNA 1: CAATCTGAATTCCGGTCTCCC
# DNA 2: TGGTGGCTACGACGGGATT
# B12: CUUUACC (DNA:RNA)
# RNA: B3 RNA with G25C, C28U, C29A, U30C, G31C
# DNA 1: CAATCTGAATTCCGGTCTCCC
# DNA 2: TGGTGGCTACGACGGGATT
# B13: CUAGUGA (DNA:RNA)
# RNA: B1 RNA with A25C, A26U, U28G, A30G, U31A
# DNA 1: CAATCTGAATTCCGGTCTCCC
# DNA 2: TGGTGGCTACGACGGGATT
# B14: CAAGAUC (DNA:RNA)
# RNA: B1 RNA with A25C, U28G, U29A, A30U, U31C
# DNA 1: CAATCTGAATTCCGGTCTCCC
# DNA 2: TGGTGGCTACGACGGGATT
# B15: UAUCACU (DNA:RNA)
# RNA: B1 RNA with A25U, A27U, U28C, U29A, A30C
# DNA 1: CAATCTGAATTCCGGTCTCCC
# DNA 2: TGGTGGCTACGACGGGATT
# B16: GGCUCCU (DNA:RNA)
# RNA: B1 RNA with A25G, A26G, A27C, U29C, A30C
# DNA 1: CAATCTGAATTCCGGTCTCCC
# DNA 2: TGGTGGCTACGACGGGATT
# B17: AACAUCG (DNA:RNA)
# RNA: B1 RNA with A27C, U28A, A30C, U31G
# DNA 1: CAATCTGAATTCCGGTCTCCC
# DNA 2: TGGTGGCTACGACGGGATT
# B18: CGCGUGU (DNA:RNA)
# RNA: B1 RNA with A25C, A26G, A27C, U28G, A30G
# DNA 1: CAATCTGAATTCCGGTCTCCC
# DNA 2: TGGTGGCTACGACGGGATT
# B19: ACCCCCC (DNA:RNA)
# RNA: B3 RNA with G25A, U26C, U27C, U30C, G31C
# DNA 1: CAATCTGAATTCCGGTCTCCC
# DNA 2: TGGTGGCTACGACGGGATT
# B20: CGGCCGG (DNA:RNA)
# RNA: B3 RNA with G25C, U26G, U27G, U30G
# DNA 1: CAATCTGAATTCCGGTCTCCC
# DNA 2: TGGTGGCTACGACGGGATT
# B21: GGGUUUA (DNA:RNA)
# RNA: B1 RNA with A25G, A26G, A27G, A30U, U31A
# DNA 1: CAATCTGAATTCCGGTCTCCC
# DNA 2: TGGTGGCTACGACGGGATT
# B22: AGAUCCA (DNA:RNA)
# RNA: B1 RNA with A26G, U29C, A30C, U31A
# DNA 1: CAATCTGAATTCCGGTCTCCC
# DNA 2: TGGTGGCTACGACGGGATT
# B23: GUGGCUU (DNA:RNA)
# RNA: B3 RNA with U27G, C28G, G31U
# DNA 1: CAATCTGAATTCCGGTCTCCC
# DNA 2: TGGTGGCTACGACGGGATT
# B24: UUCUAUU (DNA:RNA)
# RNA: B1 RNA with A25U, A26U, A27C, U29A, A30U
# DNA 1: CAATCTGAATTCCGGTCTCCC
# DNA 2: TGGTGGCTACGACGGGATT
# B25: CCUUGAA (DNA:RNA)
# RNA: B1 RNA with A25C, A26C, A27U, U29G, U31A
# DNA 1: CAATCTGAATTCCGGTCTCCC
# DNA 2: TGGTGGCTACGACGGGATT
# B26: UUGUAUA (DNA:RNA)
# RNA: B3 RNA with G25U, U27G, C28U, C29A, G31A
# DNA 1: CAATCTGAATTCCGGTCTCCC
# DNA 2: TGGTGGCTACGACGGGATT
# B27: CAGGCCU (DNA:RNA)
# RNA: B1 RNA with A25C, A27G, U28G, U29C, A30C
# DNA 1: CAATCTGAATTCCGGTCTCCC
# DNA 2: TGGTGGCTACGACGGGATT
# B28: CUGGCAC (DNA:RNA)
# RNA: B3 RNA with G25C, U27G, C28G, U30A, G31C
# DNA 1: CAATCTGAATTCCGGTCTCCC
# DNA 2: TGGTGGCTACGACGGGATT
# B29: UUGGAGA (DNA:RNA)
# RNA: B3 RNA with G25U, U27G, C28G, C29A, U30G, G31A
# DNA 1: CAATCTGAATTCCGGTCTCCC
# DNA 2: TGGTGGCTACGACGGGATT
# B30: GUUAAAA (DNA:RNA)
# RNA: B3 RNA with C28A, C29A, U30A, G31A
# DNA 1: CAATCTGAATTCCGGTCTCCC
# DNA 2: TGGTGGCTACGACGGGATT
# B31: AUACAUA (DNA:RNA)
# RNA: B3 RNA with G25A, U27A, C29A, G31A
# DNA 1: CAATCTGAATTCCGGTCTCCC
# DNA 2: TGGTGGCTACGACGGGATT
# Target: T1, RBFOX1 RRM RbFoxmut (Fox-RRM*)
# Assay: EMSA; HiTS-Eq, 1 nM pool, 10 min; buffer printed only for the single-RNA assays: 10 mM Tris pH 7.5, 150 mM NaCl, 3.4 mM EDTA, 0.001% NP-40, 30 C
# Conditions: tags: His6 N-terminal (pET28a); label: 5' 32P
# Method in brief: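 Purified RbFox RRM (wild type or mutant) was equilibrated for 10 min in 50 µL with 1 nM of a 5′-radiolabelled pool of RNA with 7 randomized nucleotides, its flanks annealed to DNA oligonucleotides, across increasing protein concentrations. Free RNA was separated by 8% native PAGE, excised, reverse-transcribed, PCR-barcoded and sequenced on an Illumina HiSeq 2500. Relative association constants came from read-count changes of each variant against the control reaction, normalised to the cognate motif.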
row,Binder,binding signal
1,B1,0.099 KA relative to UGCAUGU
2,B2,0.0846 KA relative to UGCAUGU
3,B3,0.094 KA relative to UGCAUGU
4,B4,0.0726 KA relative to UGCAUGU
5,B5,0.0919 KA relative to UGCAUGU
6,B6,0.121 KA relative to UGCAUGU
7,B7,0.0987 KA relative to UGCAUGU
8,B8,0.106 KA relative to UGCAUGU
9,B9,0.119 KA relative to UGCAUGU
10,B10,0.0619 KA relative to UGCAUGU
11,B11,0.12 KA relative to UGCAUGU
12,B12,0.116 KA relative to UGCAUGU
13,B13,0.074 KA relative to UGCAUGU
14,B14,0.0747 KA relative to UGCAUGU
15,B15,0.069 KA relative to UGCAUGU
16,B16,0.0894 KA relative to UGCAUGU

row,Binder,binding signal
1,B17,0.0925 KA relative to UGCAUGU
2,B18,0.184 KA relative to UGCAUGU
3,B19,0.0509 KA relative to UGCAUGU
4,B20,0.0905 KA relative to UGCAUGU
5,B21,0.143 KA relative to UGCAUGU
6,B22,0.0729 KA relative to UGCAUGU
7,B23,0.102 KA relative to UGCAUGU
8,B24,0.0916 KA relative to UGCAUGU
9,B25,0.102 KA relative to UGCAUGU
10,B26,0.208 KA relative to UGCAUGU
11,B27,0.0816 KA relative to UGCAUGU
12,B28,0.0831 KA relative to UGCAUGU
13,B29,0.0955 KA relative to UGCAUGU
14,B30,0.108 KA relative to UGCAUGU
15,B31,0.12 KA relative to UGCAUGU
